About 14,000 (4.5%) of roughly 310,000 compounds showed an effect of 50% or more. Effects have a minus sign here. Some of the results follow.
Molecular target: human ether-à-go-go-related gene (hERG) potassium channel (human, UniProt Q12809)
Experiment: primary screen, population patch clamp on CHO cells stably expressing hERG
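Further: peak tail current of the secondary pulse compared with the same well before compound.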

Chain of human ether-à-go-go-related gene (hERG) potassium channel (Q12809 whole entry, looked up): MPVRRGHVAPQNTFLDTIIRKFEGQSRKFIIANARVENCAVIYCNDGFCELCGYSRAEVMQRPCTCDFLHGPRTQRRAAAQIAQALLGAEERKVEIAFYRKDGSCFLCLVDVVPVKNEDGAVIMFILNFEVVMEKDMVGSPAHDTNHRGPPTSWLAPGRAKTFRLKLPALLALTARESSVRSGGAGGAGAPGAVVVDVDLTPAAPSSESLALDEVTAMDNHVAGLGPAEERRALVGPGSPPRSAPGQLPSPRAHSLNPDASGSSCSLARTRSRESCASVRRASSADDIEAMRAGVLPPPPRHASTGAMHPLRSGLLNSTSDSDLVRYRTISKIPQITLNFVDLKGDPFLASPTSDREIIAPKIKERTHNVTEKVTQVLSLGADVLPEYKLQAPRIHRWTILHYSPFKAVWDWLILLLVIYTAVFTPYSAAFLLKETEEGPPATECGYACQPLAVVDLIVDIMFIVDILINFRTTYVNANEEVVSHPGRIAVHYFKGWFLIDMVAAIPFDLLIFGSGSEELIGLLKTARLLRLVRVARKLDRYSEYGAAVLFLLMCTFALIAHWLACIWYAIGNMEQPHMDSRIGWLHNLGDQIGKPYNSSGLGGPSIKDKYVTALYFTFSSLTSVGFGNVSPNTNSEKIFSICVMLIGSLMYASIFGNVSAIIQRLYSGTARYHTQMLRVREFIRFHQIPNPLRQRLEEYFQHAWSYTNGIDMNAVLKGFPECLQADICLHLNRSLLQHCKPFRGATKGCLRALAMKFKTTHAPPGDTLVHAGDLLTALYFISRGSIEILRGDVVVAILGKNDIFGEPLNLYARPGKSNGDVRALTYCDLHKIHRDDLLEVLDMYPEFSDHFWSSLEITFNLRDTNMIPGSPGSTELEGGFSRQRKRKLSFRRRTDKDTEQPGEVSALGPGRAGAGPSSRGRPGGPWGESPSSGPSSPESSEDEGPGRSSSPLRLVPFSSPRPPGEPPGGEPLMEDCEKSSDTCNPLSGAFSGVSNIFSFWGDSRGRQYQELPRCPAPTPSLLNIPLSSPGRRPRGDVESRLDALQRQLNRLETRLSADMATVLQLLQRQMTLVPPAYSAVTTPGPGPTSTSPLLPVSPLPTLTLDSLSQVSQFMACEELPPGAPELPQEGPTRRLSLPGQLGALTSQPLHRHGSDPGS

Point of comparison: `COc1ccc(-c2cc(CCCC(=O)NCc3ccccn3)no2)cc1`, “hERG current change (%, negative = inhibition) at 10uM” value -15.9%. Against it:
- Cc1ccc(CCNC(=O)C2CCC(=O)N(CC3CCCCC3)C2)cc1 (stereo not shown) — higher, 8.19%
- COc1ccc(C(=O)CCc2ccccc2)cc1 — higher, 9.03%
- CN(C)S(=O)(=O)c1cccc(-c2nnc(SCC(=O)NCCCCCC(=O)O)n2-c2ccc(F)cc2)c1 — higher, 17.6%
- Cn1cccc1/C=C1/C(=O)NC(=O)N(C(C)(C)C)C1=O — higher, 5.2%
- CC(C)C(=O)Nc1nnc(CCc2ccccc2)s1 — higher, -1.05%
- O=C(Nc1ccccc1)N1C2CCC1CC(O)(c1cccnc1)C2 (stereo not shown) — higher, 8.01%
- Cc1cccn2c(=O)c(C=NCc3ccco3)c(Nc3ccc(SC(F)F)cc3)nc12 — higher, -8.4%
- Cc1ccc(-n2nc3c(c2NC(=O)c2ccc(S(=O)(=O)N4CCOCC4)cc2)CSC3)c(C)c1 — higher, -2.71%
- CCc1cccc(NC(=O)C2CCCN(c3cnccn3)C2)c1 (stereo not shown) — higher, -9.21%
- COc1cc(/C=N/Nc2snc(SC)c2C#N)ccc1O — higher, -3.46%
- CCCCCCCCOC(=O)C[N+](C)(C)C/C=C(/C)Cl.[Br-] — higher, -10.9%
- O=C(Nc1ccc(N2CCN(C(=O)c3ccco3)CC2)c(Cl)c1)c1cccnc1 — lower, -16.8%
- Cc1cc(C)c(NC(=O)CSc2nnc(SCC(=O)Nc3c(C)cc(C)cc3C)n2N)c(C)c1 — higher, 2.93%
- CC(C)c1ccc(NS(=O)(=O)c2cccc3cccnc23)cc1 — higher, -3.65%
- COC(=O)c1cc(S(=O)(=O)NCC2CCN(CCc3ccc(OC)cc3)CC2)cn1C — lower, -61.2%
- Cc1ccc(-c2nnc(Oc3ccc(NC(=O)c4ccccc4)cc3)c3ccccc23)cc1 — higher, 1.95%
- Cc1nnc(SCC2=C(C(=O)O)N3C(=O)C(NC(=O)COc4ccc(F)cc4)C3SC2)s1 (stereo not shown) — higher, 37.9%
- COc1ccc2c(c1)C=C(CN1CCN(C(C)C)C(CCO)C1)CO2 (stereo not shown) — higher, 5.68%
- COCCN1CC(O)=C(c2nc3ccccc3c(=O)[nH]2)C1=N — higher, 11.3%
- CCSc1nnc(-c2c[nH]c3ccccc23)o1 — higher, -2.59%
- Cc1cccc(Cn2nnc3ccccc32)c1O — higher, 1.09%
- COc1ccccc1/C=C1\SC(=S)N(CCC(=O)NNC(=O)c2ccccc2O)C1=O — higher, 4.15%
- Cc1ccc(C)c(OCc2cc(C(=O)NC(C)c3cnn(C)c3)no2)c1 (stereo not shown) — higher, -7.2%
- CN(C)c1nc(N)nc(CSc2nnnn2-c2cccc3ccccc23)n1 — higher, -12.4%
- O=C1CCCCc2sc(Br)c([N+](=O)[O-])c2N1 — higher, 9.25%
- COc1cccc(-n2nnnc2SCC(=O)Nc2ccc(C(C)=O)cc2)c1 — higher, 19.4%
- CN(C)c1ccc(C(=O)NCCCSc2ccccc2)cc1 — higher, 16.1%
- COCCNC(=O)NC(=O)CN1CCCc2ccccc21 — higher, -1.83%
- Cc1ccccc1NC(=O)c1ccccc1-c1ccccc1 — lower, -24.4%
- Cc1cccc(Nc2ncnc3onc(-c4ccc(F)cc4)c23)c1C — higher, -4.56%
- O=[N+]([O-])c1cccc(-c2ccc(CN3CCN(c4ccccc4)CC3)o2)c1 — higher, 3.17%
- COc1ccccc1N1CCN(C(=O)CSc2nc(C)c(Cc3ccccc3)c(=O)[nH]2)CC1 — lower, -49.3%
- C=CCCN([C@@H](C)C(=O)OC)S(=O)(=O)c1ccccc1Br — higher, 0.0767%
- O=C1N(c2ccccc2)C(c2ccc(Cl)cc2)N2CCCN12 (stereo not shown) — lower, -17.2%
- C=CCNC(=S)Nc1cc(Cl)ccc1OC — higher, 15.6%
- Cc1cc[n+](CC(=O)c2cccs2)cc1.[Br-] — higher, 10.5%
- CC(=O)c1sc(NC(=O)CS(=O)(=O)c2ccccc2)nc1-c1ccccc1 — higher, 6.7%
- Cc1cccc(C)c1NC(=O)CSc1nnc(-c2ccco2)c(-c2ccco2)n1 — lower, -67.1%
- CC1CCCCN1C(=O)c1ccccc1NC(=O)c1ccco1 (stereo not shown) — higher, 6.13%
- O=C(CN1C(=O)NC2(CCCc3ccccc32)C1=O)Nc1cccc(S(=O)(=O)N2CCCCC2)c1 (stereo not shown) — higher, 23.3%
- COc1ccc(CNC(=O)C(c2cccs2)N(C(=O)c2csnn2)C2CC2)cc1 (stereo not shown) — higher, -12.2%
- CCC(=C/c1sc2ccc3ccccc3c2[n+]1C)/C=C1\Sc2ccc3ccccc3c2N1C.[Cl-] — higher, 11.8%
- O=C(Nc1c(C(=O)N2CCCC2)cnn1-c1ccccc1)c1cccc(F)c1 — higher, 1.72%
- CC(=O)c1c(C)[nH]c(C(=O)OCC(=O)Nc2sc3c(c2C#N)CCCC3)c1C — higher, 10.9%
- CC(C)(C)c1cn(-c2ccccc2)c(=S)[nH]1 — higher, 17.8%
- CC1(C)Cc2c(c(-c3ccccc3)[nH]c(=O)c2C#N)CO1 — higher, 7.15%
- O=C(NCc1ccc(N2CCCC2=O)cc1)Nc1cccc2ccccc12 — higher, 14.3%
- Cc1cc(C)nc(N2CCCC(C(=O)NNC(=O)c3ccncc3)C2)n1 (stereo not shown) — higher, -13.2%
- COC(=O)c1c(NC(=O)COC(=O)c2ccc(C)s2)sc2c1CCCCC2 — higher, 15.7%
- COc1ccccc1C(=O)NC(=O)COC(=O)C1CC1C (stereo not shown) — higher, -3.4%
- CC(=O)c1ccc(N2CCC(C)CC2)c(F)c1 — higher, 34.8%
- CC(=O)N=c1sc(C(C)(C)C)c(C)n1C — higher, 6.95%
- CC(=O)C(C(C)=O)c1c(Cl)c(O)c(O)c2c(C(=O)c3ccccc3)coc12 — lower, -43.8%
- Cc1ccc2c(c1)N(S(=O)(=O)c1cc(-c3cc(C)no3)ccc1C)CCO2 — higher, 7.89%
- Cc1ccc(Oc2ccc(OCC(=O)NC3CCS(=O)(=O)C3)cc2)cc1 (stereo not shown) — higher, -2.44%
- CC(C)CCNC1=CC(=O)CC(c2ccccc2)C1 (stereo not shown) — lower, -33.2%
- COc1ccc(CNS(=O)(=O)c2c(C(=O)N3CCCCCC3)c(C)n(C)c2C)cc1 — higher, 16.8%
- O=C(/C=C/c1ccco1)N/C(=C\c1ccco1)C(=O)NCCc1nc2ccccc2[nH]1 — lower, -22.6%
- Cc1ccnc(NC(=O)c2ccc([N+](=O)[O-])s2)c1 — higher, 2.19%
- COc1ccc(NC(=O)c2cc(-c3ccc(C)cc3)on2)cc1 — higher, 12.6%
- O=S(=O)(Nc1ccccc1)c1ccc2c(c1)CCO2 — higher, 11%
- Cc1cccc(N(C(=O)CNC(=O)c2ccco2)C(C(=O)NC2CCCC2)c2ccncc2)c1 (stereo not shown) — higher, 7.95%
- O=c1[nH]c(=O)n(Cc2ccccc2)c(O)c1C=NCCN1CCNCC1 — higher, 12.4%
- CN1CCN(c2ccc(NC(=O)CSc3nnnn3-c3ccccc3Cl)cc2)CC1 — lower, -39.1%
- CC(/C=C(\C)Nc1ccccc1)=[NH+]c1ccccc1.[O-][Cl+3]([O-])([O-])[O-] — higher, 26.9%
- CCc1noc(C)c1C(=O)N1CC(C)SC1=Nc1ccc(Cl)cc1 (stereo not shown) — lower, -30.4%
- Cc1cccc(C(=O)N[C@H](C(=O)Nc2nnc(C3CC3)s2)C(C)C)c1 — higher, 15.2%
- CC(C)(C)OC(=O)N1CCC[C@H]1c1nnc(SCc2ccccc2F)o1 — higher, -7.91%
- COCCNC(=O)C(c1ccc(C)cc1)N(C(=O)CCC(=O)Nc1ccccn1)c1ccc(C)cc1 (stereo not shown) — higher, 14.4%
- CCCc1nc2oc3c(NCc4ccccn4)ncnc3c2c2c1COC(C)(C)C2 — lower, -17.8%
- N#C/C(C(=O)N1CCCCC1)=C1\Nc2ccccc2S1 — higher, 3.64%
- O=C(Nc1nc2ccccc2[nH]1)C1CCN(C(=O)c2ccc(F)cc2)CC1 — lower, -41.7%
- CC(=O)c1ccc(N2CCN(C(=O)Nc3cccc(F)c3)CC2)cc1 — higher, -15.4%
- CCc1ccc(C2CC(=O)NC(SCC(=O)OC(C)C)=C2C#N)cc1 (stereo not shown) — lower, -16.1%
- Cc1ccccc1CN1C(=O)c2ccccc2Sc2ccc(C(=O)NCCCN3CCOCC3)cc21 — lower, -62.9%
- Cc1ccc2c(c1)CNc1ccccc1O2 — higher, -13.7%
- COC(=O)C(O)(NC(=O)NC(C)=O)C(F)(F)F (stereo not shown) — higher, 6.61%
- O=C1CCCN1CCCNc1ncccc1[N+](=O)[O-] — higher, 10.7%
- COc1cc(/C=N/NC(=O)CSc2nc3ccccc3n2C)cc(OC)c1OC — higher, 15.6%
- CC1CCN(S(=O)(=O)N2CCN(C(=O)c3ccc4c(c3)OCO4)CC2)CC1 — lower, -20.4%
- CC(=O)[C@H]1CC[C@H]2[C@@H]3CCC4=CC(=O)CC[C@]4(C)[C@H]3[C@H](O)C[C@]12C — higher, -9.39%
- Cc1ccc(N2CC(C(=O)Nc3ccc(S(=O)(=O)NCC4CCCO4)cc3)CC2=O)cc1C (stereo not shown) — higher, 12.7%
- O=C(CSc1nnc(-c2ccccc2)o1)N1CCCC1 — higher, 15.6%
- Cc1ccc(CSc2nnc(-c3ccncc3)n2C)cc1 — higher, 4.36%
- O=C(c1ccc(-n2cncn2)c([N+](=O)[O-])c1)N1CCN(S(=O)(=O)c2ccc(Br)cc2)CC1 — lower, -67.5%
- CCCSC1=C(C#N)C(c2ccccc2C)CC(=O)N1 (stereo not shown) — higher, 1.21%
- CCC(=O)N1CCN(c2nc(-c3ccc(Cl)cc3)cs2)CC1 — lower, -25%

From article PMC4336329 (PLoS ONE, 2015)
